Measured values: article PMC11589570, “Critical assessment of LC3/GABARAP ligands used for degrader development and ligandability of LC3/GABARAP binding pockets” (Nature Communications, 2024)
Values joined by “and” are separate entries in the source; they are usually repeats but may differ in a detail not shown here. Equal entries are not always repeated.

How the values were obtained:
LC3A [1] = molecular target: T1, LC3A (Homo sapiens, UniProt Q9H492); assay: FP assay with Cy5-labelled p62 LIR tracer (protein titration and tracer displacement); format: binding; conditions: two replicate columns per compound
LC3B [2] = molecular target: T2, LC3B (Homo sapiens, UniProt Q9GZQ8); assay: as above; format: binding; conditions: for normalized FP signal, p62 LIR tracer displacement: LC3B; for compound titration LC3B (displacement curve, FP signal): two replicate columns per compound
GABARAP = GABARAP (Homo sapiens, UniProt O95166); assay: as above; format: binding; conditions: two replicate columns per compound
Sequence of GABARAP (O95166 1-116): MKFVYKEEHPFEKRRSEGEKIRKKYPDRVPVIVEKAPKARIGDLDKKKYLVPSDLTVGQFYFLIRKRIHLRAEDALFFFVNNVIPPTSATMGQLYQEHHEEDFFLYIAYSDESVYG

LC3C = LC3C (Homo sapiens, UniProt Q9BXW4); assay: as above; format: binding; conditions: two replicate columns per compound
Sequence of LC3C (Q9BXW4 1-126): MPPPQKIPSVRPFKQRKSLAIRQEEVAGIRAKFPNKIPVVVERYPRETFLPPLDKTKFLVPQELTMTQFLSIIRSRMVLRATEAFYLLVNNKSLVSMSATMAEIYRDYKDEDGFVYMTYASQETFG

GABARAPL1 = GABARAPL1 (Homo sapiens, UniProt Q9H0R8); assay: as above; format: binding; conditions: two replicate columns per compound
Sequence of GABARAPL1 (Q9H0R8 whole entry): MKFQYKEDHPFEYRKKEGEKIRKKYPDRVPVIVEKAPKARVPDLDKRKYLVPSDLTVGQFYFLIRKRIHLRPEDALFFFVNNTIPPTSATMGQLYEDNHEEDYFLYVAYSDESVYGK

LC3B [3] = molecular target: T2, LC3B; assay: FP assay with 10O5- and 8F20-based dye-linked tracers 16 and 17
LC3A [4] = molecular target: T1, LC3A; assay: as above
[5] = molecular target: T3, NanoLuc-fusion full-length LC3B (Homo sapiens, UniProt Q9GZQ8); assay: NanoBRET cellular target engagement assay in HEK293T cells; format: cell-based
T3 construct: a fluorescent donor (in this case full length LC3A and LC3B); expressed in transfected cells; host or cells: HEK293T (ATCC; CRL-11268)
Protocol: (§1) NanoBRET cellular target engagement assay: Constructs contained the cDNA of full-length LC3A and LC3B cloned in frame with an N-terminal NanoLuc-fusion. Plasmids were transfected into HEK293T (ATCC; CRL-11268) cells using FuGENE HD (Promega, E2312) and proteins were allowed to express for 20 h. 10O5 and 8F20-based tracers were titrated to the protein as depicted in Supplementary Fig. 4d. For competition experiments, 1 µM of the tracers was pipetted into white 384-well plates (Greiner 781 207) using an Echo 550 acoustic dispenser (Labcyte) containing LC3A/LC3B expressing transfected cells at a density of 2.5 × 10^5 cells/mL in Opti-MEM without phenol red (Life Technologies). The system was allowed to equilibrate for 2 h at 37 °C and 5% CO2 prior to BRET measurements. To measure BRET, NanoBRET NanoGlo Substrate + Extracellular NanoLuc Inhibitor (Promega, N2540) was added as per the manufacturer’s protocol, and filtered luminescence was measured on a PHERAstar plate reader (BMG Labtech) equipped with a luminescence filter pair (450 nm BP filter (donor) and 610 nm LP filter (acceptor)). Competitive displacement data were then plotted using GraphPad Prism 9.3 software using a normalized 3-parameter curve fit. A detailed step-by-step protocol for this assay is described in Schwalm..

[6] = molecular target: T4, NanoLuc-fusion full-length LC3A (Homo sapiens, UniProt Q9H492); assay: as above; format: cell-based
T4 construct: a fluorescent donor (in this case full length LC3A and LC3B); expressed in transfected cells; host or cells: HEK293T (ATCC; CRL-11268)
Protocol: as §1

[7] = log10 concentration [M] -3.82391
[8] = log10 concentration [M] -4.1549
[9] = log10 concentration [M] -4.60206
[10] = log10 concentration [M] -5.30103
[11] = log10 concentration [M] -5.69897
[12] = log10 concentration [M] -6.22185
[13] = log10 concentration [M] -6.69897
[14] = log10 concentration [M] -7.30103
[15] = log10 concentration [M] -7.79588
[16] = log10 concentration [M] -8.08092
[17] = 0.05% Tween20 supplemented buffer

SMILES: CCc1ccc(S(=O)(=O)Nc2cc(SCC(=O)O)c(O)c3ccccc23)cc1 [compound 11]
- compound titration LC3A (displacement curve, FP signal) (LC3A [1]; [7]): 82.6316 and 91.8421
- compound titration LC3A (displacement curve, FP signal) (LC3A [1]; [8]): 85.5263 and 99.2105
- compound titration LC3A (displacement curve, FP signal) (LC3A [1]; [9]): 89.2105 and 103.421
- compound titration LC3A (displacement curve, FP signal) (LC3A [1]; log10 concentration [M] -5): 90.7895 and 105.263
- compound titration LC3A (displacement curve, FP signal) (LC3A [1]; [10]): 96.8421 and 102.105
- compound titration LC3A (displacement curve, FP signal) (LC3A [1]; [11]): 93.1579 and 97.3684
- compound titration LC3A (displacement curve, FP signal) (LC3A [1]; [12]): 98.9474 and 103.158
- compound titration LC3A (displacement curve, FP signal) (LC3A [1]; [13]): 99.4737 and 96.8421
- compound titration LC3A (displacement curve, FP signal) (LC3A [1]; [14]): 101.053 and 98.9474
- compound titration LC3A (displacement curve, FP signal) (LC3A [1]; [15]): 105 and 101.842
- compound titration LC3A (displacement curve, FP signal) (LC3A [1]; [16]): 102.632 and 101.316
- normalized FP signal, p62 LIR tracer displacement (LC3B [2]; [7]): 42.3684 and 49.2105
- normalized FP signal, p62 LIR tracer displacement (LC3B [2]; [8]): 90 and 101.842
- normalized FP signal, p62 LIR tracer displacement (LC3B [2]; [9]): 94.4737 and 100.263
- normalized FP signal, p62 LIR tracer displacement (LC3B [2]; log10 concentration [M] -5): 95 and 98.1579
- normalized FP signal, p62 LIR tracer displacement (LC3B [2]; [10]): 97.3684 and 102.895
- normalized FP signal, p62 LIR tracer displacement (LC3B [2]; [11]): 92.1053 and 97.3684
- normalized FP signal, p62 LIR tracer displacement (LC3B [2]; [12]): 97.1053 and 102.368
- normalized FP signal, p62 LIR tracer displacement (LC3B [2]; [13]): 97.6316 and 101.842
- normalized FP signal, p62 LIR tracer displacement (LC3B [2]; [14]): 97.1053 and 92.6316
- normalized FP signal, p62 LIR tracer displacement (LC3B [2]; [15]): 98.4211 and 99.7368
- normalized FP signal, p62 LIR tracer displacement (LC3B [2]; [16]): 96.0526 and 96.3158
- compound titration LC3B (displacement curve, FP signal) (LC3B [2]; [7]): 42.3684 and 49.2105
- compound titration LC3B (displacement curve, FP signal) (LC3B [2]; [8]): 90 and 101.842
- compound titration LC3B (displacement curve, FP signal) (LC3B [2]; [9]): 94.4737 and 100.263
- compound titration LC3B (displacement curve, FP signal) (LC3B [2]; log10 concentration [M] -5): 95 and 98.1579
- compound titration LC3B (displacement curve, FP signal) (LC3B [2]; [10]): 97.3684 and 102.895
- compound titration LC3B (displacement curve, FP signal) (LC3B [2]; [11]): 92.1053 and 97.3684
- compound titration LC3B (displacement curve, FP signal) (LC3B [2]; [12]): 97.1053 and 102.368
- compound titration LC3B (displacement curve, FP signal) (LC3B [2]; [13]): 97.6316 and 101.842
- compound titration LC3B (displacement curve, FP signal) (LC3B [2]; [14]): 97.1053 and 92.6316
- compound titration LC3B (displacement curve, FP signal) (LC3B [2]; [15]): 98.4211 and 99.7368
- compound titration LC3B (displacement curve, FP signal) (LC3B [2]; [16]): 96.0526 and 96.3158
- compound titration GABARAP (displacement curve, FP signal) (GABARAP; [7]): 11.7241 and 11.3793
- compound titration GABARAP (displacement curve, FP signal) (GABARAP; [8]): 35.3448 and 39.8276
- compound titration GABARAP (displacement curve, FP signal) (GABARAP; [9]): 93.9655 and 97.5862
- compound titration GABARAP (displacement curve, FP signal) (GABARAP; log10 concentration [M] -5): 95.5172 and 97.2414
- compound titration GABARAP (displacement curve, FP signal) (GABARAP; [10]): 95.6897 and 96.7241
- compound titration GABARAP (displacement curve, FP signal) (GABARAP; [11]): 93.6207 and 92.4138
- compound titration GABARAP (displacement curve, FP signal) (GABARAP; [12]): 98.7931 and 97.4138
- compound titration GABARAP (displacement curve, FP signal) (GABARAP; [13]): 100.862 and 96.7241
- compound titration GABARAP (displacement curve, FP signal) (GABARAP; [14]): 97.5862 and 96.2069
- compound titration GABARAP (displacement curve, FP signal) (GABARAP; [15]): 96.0345 and 94.8276
- compound titration GABARAP (displacement curve, FP signal) (GABARAP; [16]): 95.3448 and 96.8966
- compound titration LC3C (displacement curve, FP signal) (LC3C; [7]): 18.6 and 15.8
- compound titration LC3C (displacement curve, FP signal) (LC3C; [8]): 38.2 and 41.8
- compound titration LC3C (displacement curve, FP signal) (LC3C; [9]): 92 and 93
- compound titration LC3C (displacement curve, FP signal) (LC3C; log10 concentration [M] -5): 93.8 and 95.8
- compound titration LC3C (displacement curve, FP signal) (LC3C; [10]): 93 and 96.8
- compound titration LC3C (displacement curve, FP signal) (LC3C; [11]): 84.8 and 91.2
- compound titration LC3C (displacement curve, FP signal) (LC3C; [12]): 93.2 and 91.6
- compound titration LC3C (displacement curve, FP signal) (LC3C; [13]): 94.6 and 99
- compound titration LC3C (displacement curve, FP signal) (LC3C; [14]): 97.6 and 98
- compound titration LC3C (displacement curve, FP signal) (LC3C; [15]): 94.2 and 90.8
- compound titration LC3C (displacement curve, FP signal) (LC3C; [16]): 95.8
- compound titration GABARAPL1 (displacement curve, FP signal) (GABARAPL1; [7]): 13.2857 and 12.1429
- compound titration GABARAPL1 (displacement curve, FP signal) (GABARAPL1; [8]): 38 and 36
- compound titration GABARAPL1 (displacement curve, FP signal) (GABARAPL1; [9]): 96.5714 and 97.2857
- compound titration GABARAPL1 (displacement curve, FP signal) (GABARAPL1; log10 concentration [M] -5): 100.286 and 101.857

SMILES: O=C(CCc1ccc2n1[B-](F)(F)[N+]1=C(c3ccc[nH]3)C=CC1=C2)NCCCOCCOCCOCCCNC(=O)COc1c(Br)cc(C=C2C(=O)Nc3ccc(I)cc32)cc1Br [compound 16, N-(1-(2,6-dibromo-4-((5-iodo-2-oxoindolin-3-ylidene)methyl)phenoxy)−2-oxo-7,10,13-trioxa-3-azahexadecan-16-yl)−3-(5,5-difluoro-7-(1H-pyrrol-2-yl)−5H-4l4,5l4-dipyrrolo[1,2-c:2’,1’-f][1,3,2]diazaborinin-3-yl)propenamide]
- tracer binding in repeated protein titration (LC3B [3]; [17]): completely abolishing the putative binding
- tracer affinity (protein titration for tracer KD) (LC3B [3]; buffer lacking detergent): nanomolar
- tracer binding in repeated protein titration (LC3A [4]; [17]): completely abolishing the putative binding
- tracer affinity (protein titration for tracer KD) (LC3A [4]; buffer lacking detergent): nanomolar
- NanoBRET signal / tracer displacement ([5]; LC3B, 1 µM tracer, compound 4 for tracer 16, compound 3 for tracer 17): no BRET signal
- maximum BRET increase in tracer titration ([5]; NanoLuciferase-tagged LC3B): ~ 1.3 fold
- NanoBRET signal / tracer displacement ([6]; LC3A, 1 µM tracer, compound 4 for tracer 16, compound 3 for tracer 17): no BRET signal
- maximum BRET increase in tracer titration ([6]; NanoLuciferase-tagged LC3A): ~ 1.3 fold
